Laboratory results reported in PubChem BioAssay AID504339 (National Center for Advancing Translational Sciences (NCATS), 2011).
The campaign covered roughly 390,000 compounds. About 17,000 (4.4%) were called active. This list was built around the results that the source calls inconclusive (neither active nor inactive); the mix of calls is not that of the screen. Calls follow the shape of the dose curve; as a rule, active = well fitted inhibition curve with a large enough effect; inconclusive = small, poorly fitted or top-dose-only effect; inactive = no such curve, though single readings can be large or run the other way. Where the call is inconclusive, the potency comes from a doubtful curve fit.

molecular target: Lysine-specific demethylase 4A (Homo sapiens) (UniProt O75164); assay: qHTS Assay for Inhibitors of JMJD2A-Tudor Domain; details: AlphaScreen JMJD2A-Tudor / H3K4me3 peptide binding; series mostly up to 114 µM; also: nearly all actives have a fitted effect of over 50% in size
UniProt O75164, sequence (O75164 whole entry, looked up, the tested form may be a part): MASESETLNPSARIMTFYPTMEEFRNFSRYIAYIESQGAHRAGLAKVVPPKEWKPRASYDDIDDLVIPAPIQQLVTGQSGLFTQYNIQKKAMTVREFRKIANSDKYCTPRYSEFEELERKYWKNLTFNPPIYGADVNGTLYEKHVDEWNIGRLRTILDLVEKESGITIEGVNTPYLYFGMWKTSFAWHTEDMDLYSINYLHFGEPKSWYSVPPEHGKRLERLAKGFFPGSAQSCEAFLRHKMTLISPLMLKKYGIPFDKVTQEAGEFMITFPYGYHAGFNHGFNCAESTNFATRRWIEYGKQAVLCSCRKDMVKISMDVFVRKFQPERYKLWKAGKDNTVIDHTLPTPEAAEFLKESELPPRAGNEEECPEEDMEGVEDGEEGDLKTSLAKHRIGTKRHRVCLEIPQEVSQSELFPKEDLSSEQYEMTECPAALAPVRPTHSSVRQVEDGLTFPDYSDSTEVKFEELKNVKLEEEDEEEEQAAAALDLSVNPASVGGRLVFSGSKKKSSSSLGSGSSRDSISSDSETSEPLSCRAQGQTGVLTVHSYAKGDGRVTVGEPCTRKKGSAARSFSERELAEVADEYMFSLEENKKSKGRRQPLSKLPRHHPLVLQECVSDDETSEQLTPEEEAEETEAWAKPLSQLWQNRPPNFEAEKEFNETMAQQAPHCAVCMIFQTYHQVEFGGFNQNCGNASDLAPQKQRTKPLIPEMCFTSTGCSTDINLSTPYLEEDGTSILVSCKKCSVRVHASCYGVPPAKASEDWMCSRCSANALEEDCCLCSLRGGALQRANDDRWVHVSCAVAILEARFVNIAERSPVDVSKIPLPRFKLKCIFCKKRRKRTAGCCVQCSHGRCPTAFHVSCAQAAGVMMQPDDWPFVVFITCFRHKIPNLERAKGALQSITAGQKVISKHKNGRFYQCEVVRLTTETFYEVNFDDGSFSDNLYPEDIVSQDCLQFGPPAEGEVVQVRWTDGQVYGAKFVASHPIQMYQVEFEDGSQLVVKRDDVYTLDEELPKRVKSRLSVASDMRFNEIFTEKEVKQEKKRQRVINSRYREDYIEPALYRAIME
Potency is read from the fitted curve at half-maximal effect; tags tell the direction and shape of the fitted curve.

| SMILES | Potency |
| --- | --- |
| COc1ccc(NC(=O)c2ccccc2[N+](=O)[O-])cc1 | inactive |
| CN(C)c1ccc(N=Cc2cccn2C)cc1 | active: 50.1 µM |
| Cc1noc(C)c1CSCC(=O)N(C)CC(=O)Nc1cccc(F)c1 | inactive |
| CN(C)CCCN(C(=O)c1ccc(S(=O)(=O)N(C)Cc2ccccc2)cc1)c1nc2c(F)cccc2s1 | inconclusive: 56.2 µM [inhibitor, partial curve] |
| Cc1nc(NC(=O)CC(C)C)sc1-c1csc(Nc2ccc(Cl)cc2)n1 | inconclusive: 63.1 µM [inhibitor, partial curve, poor fit] |
| CC(=O)C1=C(C)NC(SCC(=O)c2ccc(Cl)cc2Cl)=C(C#N)C1c1ccco1 (stereo not given) | inconclusive: 50.1 µM [inhibitor, partial curve] |
| CCc1ccc(Nc2n[n+](-c3ccccc3)c(-c3cccc(Cl)c3Cl)s2)cc1 | active: 56.2 µM |
| CC(C(=O)N1CCc2ccccc21)N1CCc2ccccc2C1 (stereo not given) | inactive |
| O=C1C2Sc3[nH]c(=O)sc3C(c3ccccc3)C2C(=O)N1c1ccc(Cl)cc1 (stereo not given) | inconclusive: 89.1 µM [inhibitor, single point] |
| O=C(c1cc(-c2ccc(O)cc2)on1)N1CCc2ccccc2C1 | inconclusive: 89.1 µM [inhibitor, partial curve] |
| Cc1c(NC(=O)CSc2nc(N)cc(N)n2)c(=O)n(-c2ccccc2)n1C | inactive |
| CCCCCOc1ccc(Cn2ccnc2)cc1[N+](=O)[O-] | inconclusive: 31.6 µM [inhibitor, partial curve] |
| Cc1ccc(N=C/C(C(=O)C(F)(F)F)=C(\O)c2ccco2)cc1Cl | inconclusive: 70.8 µM [inhibitor, single point] |
| Cc1c(N(C)C(=O)c2ccco2)c(=O)n(-c2ccccc2)n1C | inconclusive: 39.8 µM [inhibitor, single point] |
| CCc1ccc(OCCCSc2nc(-c3ccc(C(C)(C)C)cc3)nc3cc(=O)[nH]n23)cc1 | active: 25.1 µM |
| O=C1C2CC=CCC2C(=O)N1c1ccc(N2CCN(c3ccccn3)CC2)c([N+](=O)[O-])c1 (stereo not given) | inconclusive: 20 µM [inhibitor, full curve] |
| Oc1ccc2c(c1)OCC1(O)Cc3cc(O)c(O)cc3C21 (stereo not given) | active: 20 µM |
| c1cc2c3c(cccc3c1)NC(c1ccc3c(c1)OCO3)N2 | active: 39.8 µM |
| COc1ccccc1-n1cc(-c2ccc(Br)cc2)[nH]c1=S | inconclusive: 56.2 µM [inhibitor, partial curve, poor fit] |
| Cc1ccc(Cn2c(C(=O)Nc3cccc(Cl)c3)cc3sccc32)cc1 | inactive |
| Cc1ccccc1NN=Nc1nc2c([nH]1)c(=O)n(C)c(=O)n2C | inconclusive: 70.8 µM [inhibitor, single point] |
| COc1ccc(N2CCN(C(c3ccccc3)c3sc4nc(C)nn4c3O)CC2)cc1 (stereo not given) | inconclusive: 28.2 µM [inhibitor, partial curve] |
| C=CCNC(=S)Nc1c(C(=O)OC)[nH]c2cc(OC)ccc12 | inconclusive: 20 µM [inhibitor, single point] |

| SMILES | Potency |
| --- | --- |
| ClCC1=Nc2ccccc2Cc2ccccc21 | inconclusive: 14.1 µM [inhibitor, full curve, poor fit] |
| S=c1[nH]nc(COc2ccccc2)n1/N=C/c1ccc(Cl)c(Cl)c1 | inconclusive: 39.8 µM [inhibitor, partial curve] |
| CC(C)C(=O)N1CCN(c2ccccc2NC(=O)c2ccco2)CC1 | inconclusive: 89.1 µM [inhibitor, partial curve] |
| COC(=O)[C@]1(Cc2ccccc2)N[C@H](c2ccc(-c3cccc(Cl)c3)cc2)[C@@H]2C(=O)N(C)C(=O)[C@@H]21 | inconclusive: 89.1 µM [inhibitor, partial curve] |
| O=c1c2c(nc3cc(-c4cccc(F)c4)[nH]n13)CCC2 | inactive |
| Cc1cccc(C)c1NC(=O)c1csc2c1CCCC2 | inconclusive: 89.1 µM [inhibitor, single point] |
| Cc1cc2ccccn2c1C(=O)c1nc(N2CCOCC2)ncc1Cl | inconclusive: 31.6 µM [inhibitor, full curve, poor fit] |
| CCc1ccc(NC(=O)c2cc(S(=O)(=O)N3CCCCCC3)ccc2F)cc1 | inactive |
| Cc1nc(CCN2C(=O)c3ccccc3C2=O)cs1 | inactive |
| Cc1ccc(-c2nnc(SCC(=O)N3CCCC3)o2)cc1 | inconclusive: 25.1 µM [inhibitor, single point] |
| C=CCn1c(CNc2ccccc2)nnc1SCC(=O)N/N=C/c1ccc(O)cc1O | inactive |
| CCCCNC(=S)NC(=O)c1ccc([N+](=O)[O-])cc1 | inconclusive: 44.7 µM [inhibitor, partial curve] |
| O=[N+]([O-])c1cc(/C=N/N2CCN(Cc3ccccc3)CC2)ccc1Cl | inconclusive: 56.2 µM [inhibitor, partial curve] |
| CC1(c2nnc(-c3ccc(F)cc3)o2)CC(c2ccc([N+](=O)[O-])cc2)=NO1 (stereo not given) | inconclusive: 44.7 µM [inhibitor, partial curve] |
| O=C(O)CN1C(=O)/C(=C\c2cccc(OCc3ccccc3F)c2)SC1=S | inconclusive: 31.6 µM [inhibitor, partial curve] |
| Cc1ccc(C)c(S(=O)(=O)Nc2nc3ccc(S(N)(=O)=O)cc3s2)c1 | active: 50.1 µM |
| Clc1cccc(/C=N/N2CCN(Cc3ccccc3)CC2)c1 | active: 50.1 µM |
| COc1cc(Cl)c(C)cc1NC(=O)c1cc2ccc3cccnc3c2[nH]1 | inconclusive: 63.1 µM [inhibitor, partial curve] |
| O=Cc1nc(-c2ccc(Cl)cc2)n2ccccc12 | inconclusive: 89.1 µM [inhibitor, single point] |
| CC(=O)OCc1cnc(C)c2oc(=O)c(C(=O)Nc3cccc(F)c3)cc12 | inactive |
| CN(C)c1ccccc1-c1csc(N2CCC(C(N)=O)CC2)n1 | inconclusive: 56.2 µM [inhibitor, partial curve, poor fit] |
| COc1ccc(N2CCN(Cc3nc4scc(-c5ccccc5)c4c(=O)[nH]3)CC2)cc1 | inconclusive: 50.1 µM [inhibitor, partial curve] |
